Measured values taken from PMC12136788.
The list shows a part of the results.

T1: UNK ZnF1-3 (human, UniProt Q9C0B0 31-174)
T1 sequence: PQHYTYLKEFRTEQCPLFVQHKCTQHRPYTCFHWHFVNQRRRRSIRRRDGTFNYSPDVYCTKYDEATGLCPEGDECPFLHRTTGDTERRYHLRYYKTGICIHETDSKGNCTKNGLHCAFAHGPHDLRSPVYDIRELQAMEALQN

B1: chr7:140402705:140402706:+_ENSG00000090266_ENST00000247866|hu_hu|motif|central (ssRNA)
RNA: GGGAGUUCUACAGUCCGACGAUCUCCGCUGAAGAACUCGCUCUGGAACACCUGGGAUCUGGUCAGCUGGGGGAACUGUCGGUACCGGGGCUCAAUGUGCACACCACCACCGGCAUGACGGACUCCACCAUCUCCAGCAGUCCGCAACAGAGGAUUGAGCAUCA
B2: chr5:100466915:100466916:-_ENSMUSG00000029328_ENSMUST00000153442|mus_mus|motif|central (ssRNA)
RNA: GGGAGUUCUACAGUCCGACGAUCAGCACAAAUCCAAAUCCUCUUGAUCUUCCCGUGACUGGGUCUGUUUUAAUUGUGCAGUCGGCCACUUCCCCAAAUCGAGACAAAUAUUCAGUCAGAUCUUUCUUGCUUGUAUCCCAGCUCCAACAGAGGAUUGAGCAUCA
B3: chr1:115268999:115269000:-_ENSG00000009307_ENST00000339438|hu_mus|FALSE|FALSE (ssRNA)
RNA: GGGAGUUCUACAGUCCGACGAUCUAAAAGUCUCACGCAAGUUGCAAUCUGCUGUCCAGGCCUCUGUUUGUCACUAAUACUAAAUUCAACCUUAUCUCCUAUUUGAGGAGAAGUAGAUCCUUCCACAUCCUUGGCUUGAAAAGCCAACAGAGGAUUGAGCAUCA
B4: chr17:27085315:27085316:-_ENSG00000173065_ENST00000581407|hu_hu|motif|central (ssRNA)
RNA: GGGAGUUCUACAGUCCGACGAUCACCUAGGAGGGUGAUGUAUGAUGUGUUGCACGUGGAGGGCAGCAGGGCUACCGGUCGGUACCCUGGGUGCUGAAUAUGAAGACUUCGACUCUCUGUGGGAUCGGGGGCUCGGUUGCCAGGCAACAGAGGAUUGAGCAUCA
B5: 46342315_46355519_476_3pUTR_ENSG00000139218_ENST00000369367|human|control|control (ssRNA)
RNA: GGGAGUUCUACAGUCCGACGAUCUGAACCUUAACAUAACCUUCCAAUGCACUGAAUUUAAACACUGCCUGAAAAGGUUUACGGUCAAUAGGACAUGAAGCCAGUGUCUCUGCCCAUUUAAGAAUACAAGUCAUACAGAAGACACAACAGAGGAUUGAGCAUCA
B6: chr6:40197388:40197389:+_ENSMUSG00000057716_ENSMUST00000061740|mus_mus|mus_mus_mus_hu_False|78_88 (ssRNA)
RNA: GGGAGUUCUACAGUCCGACGAUCGAGACACUGGGGUGGAUUUAUUCUCAGUUUGGGUGCUAGCCUCCCACUAAGACUGUUAUUUUGGGAUUCAUGGCCUUGAAUAUCAAGAGGGAAAGGAAGAGGAUGGAAAGAGUCAAGAGUCAACAGAGGAUUGAGCAUCA
B7: chr7:80921385:80921386:+_ENSMUSG00000078670_ENSMUST00000107456|mus_mus|motif|central (ssRNA)
RNA: GGGAGUUCUACAGUCCGACGAUCUAGGGCUGAAAGAACCAGUGUCAAGUCAGGCUCCUGAGCCAGGGUGGAUCUUCCCACCGGCCGCCAUCACCACAACCCCAGUCAGAACUGGAGAACCUGACAGUGGUGGAGCUGGCCAAGCAACAGAGGAUUGAGCAUCA
B8: chr19:16212804:16212805:+_ENSG00000167460_ENST00000300933|hu_mus|hu_hu_hu_mus_False|78_108 (ssRNA)
RNA: GGGAGUUCUACAGUCCGACGAUCAACAAAUAUGCAAUGAAGGAAAGAUGUAACAUGCAAUUAAUUAAAAGCUCAGUCAGAAGGCACAUGGGCAACAAUGAUCACCCCAGCAUUCUCGCUUGGAAUGCUUAAAGACAAUCUGUUCAACAGAGGAUUGAGCAUCA
B9: chr5:92956547:92956548:-_ENSG00000113391_ENST00000395965|hu_hu|motif|central (ssRNA)
RNA: GGGAGUUCUACAGUCCGACGAUCCCAGUGAACCCAUAUUGCUUUGACAGUUGCACUCAUCUAGAAAUAAUGCAAAACGCGGUUUAGAUGUAUAUAUCACGACCCUGGGCUCUGGGAAGAAAACAAUCUAAUGAGGGGCUGGGACAACAGAGGAUUGAGCAUCA
B10: chr9:95013113:95013114:-_ENSG00000196305_ENST00000443024|hu_hu|hu_hu_hu_mus_False|48_48 (ssRNA)
RNA: GGGAGUUCUACAGUCCGACGAUCCUCAGUCAGAAAGGGCGUGUAAGGGGCCAUCAGUCUGCACAGAGAAAGCAGGACACUGAACAGGGUUUCUAGGGCCAUGACACAGUCUUCCACCCCACUCUCACCCUUUAACCUCCUCCUCAACAGAGGAUUGAGCAUCA
B11: 67067385_67067505_86_3pUTR_ENSMUSG00000029223_ENSMUST00000031131|mouse|control|control (ssRNA)
RNA: GGGAGUUCUACAGUCCGACGAUCACAAACCCGAGGAGCCGAAAAAACAGCCGGUGGAGCCGCCCAGGCUGCUGUUAUAAAGCGCCGGCCUCGCUCACUGGGAAAGCCUGAGCAGGGGAGACGGGAGCAGAAACAAGCAGAGGACAACAGAGGAUUGAGCAUCA
B12: 80012782_80013088_745_CDS_ENSG00000169727_ENST00000578552|human|control|control (ssRNA)
RNA: GGGAGUUCUACAGUCCGACGAUCCUUGAGCUUGGUGAGGAUGGCCUGGGUCUGGCUGUCACGCUCUCCUCGCUGCUCGGCAAUCUCUGGGGUGGACUCAGCCUUGCUGACGUAGCUGAGCACAUGAGACCAAUUCUGCAAGUACAACAGAGGAUUGAGCAUCA
B13: chr18:56819859:56819860:+_ENSG00000166562_ENST00000588875|hu_hu|FALSE|FALSE (ssRNA)
RNA: GGGAGUUCUACAGUCCGACGAUCAACUUUGAUUACUCUGUGAACUAUUGGAAUGUCUCGUCCUUCAACUUUAAAAACAACUAUUUCACCAGCUCUGAUUGGGUCUUCCCGGAAAUUUGUGAGGAACAGGAGGUCUCCUCUGUGCAACAGAGGAUUGAGCAUCA
B14: 98119433_98119553_737_CDS_ENSMUSG00000022987_ENSMUST00000023722|mouse|control|control (ssRNA)
RNA: GGGAGUUCUACAGUCCGACGAUCGAGAGAGUCUGUGUCUGUUCUGUGUAGAUGGCGAGAGAAGGUGUCCUCCUGAAGGAAGCGUGGGCUUAGGAGCAUUCCUGUGGAGUUCCUGGGCAUGGACUCCCAGCUUGGACCCUGCCCCAACAGAGGAUUGAGCAUCA
B15: chr7:149068622:149068623:-_ENSMUSG00000025139_ENSMUST00000001950|mus_hu|mus_mus_mus_hu_False|18_68 (ssRNA)
RNA: GGGAGUUCUACAGUCCGACGAUCGUGAGGCCUCUGAGUGUGGCUUGUGGUCUGUCCUGGGUUAGAGCUGCUGGUAACACGGAACAUACCAUCUAGAACGUUCCAGUCCCGCCUGACCAUCCACCCUCCAAUGGAGAAGAAAUCCAACAGAGGAUUGAGCAUCA
B16: 149462202_149462322_2395_CDS_ENSMUSG00000003452_ENSMUST00000086829|mouse|control|control (ssRNA)
RNA: GGGAGUUCUACAGUCCGACGAUCUAAGGCUUCCUUGUCCUUAUCAAUCAUGGGGGCCAACUCUCGGGCUGCUGCUCUUUGACGAGACAGCUGUAAGGACCUGUCCACUGCCUUCUGCAGAUGCUUGAUUUGGUCCCGGAUUAUCAACAGAGGAUUGAGCAUCA
B17: chr16:45382771:45382772:-_ENSMUSG00000022661_ENSMUST00000163230|mus_mus|mus_mus_mus_hu_True|58_88 (ssRNA)
RNA: GGGAGUUCUACAGUCCGACGAUCCUGGGUCAUGUUAUAAGACAAAUGGAUAGGGAGGGCAUGCUUCUCAAAAAAUGUGAACUACUCUCUAAGACUAACAAUAUUUAUCUAGCUAUAAAAAUAAGUUAAAUGAAUAAGUUAAGACAACAGAGGAUUGAGCAUCA
B18: chr15:66793332:66793333:-_ENSG00000174444_ENST00000568588|hu_hu|FALSE|FALSE (ssRNA)
RNA: GGGAGUUCUACAGUCCGACGAUCCAUGGGAAGAUUGUAGUUACUCUUGAGGGAAGCGGCUUUACGCCAAGUGCCGUACAAUUCAUCUAACUUCCGGAAAGCACUUUCAGUCCAAAUGCAGAAACGUCCCACAUGCCCACCAGGCAACAGAGGAUUGAGCAUCA
B19: chr9:79616815:79616816:-_ENSMUSG00000032328_ENSMUST00000034878|mus_hu|motif|central (ssRNA)
RNA: GGGAGUUCUACAGUCCGACGAUCAAGACACCUGAACAUAGCAAAAUUAAUUUUGUUCAUUUUUAUUAACAUAGGACAUACGGACCAAAUAUUAUCAUUUAAUAAAAUCAACGUUACAAAGAAACUCACUAGCAAAUAAACAAACAACAGAGGAUUGAGCAUCA
B20: chr4:76721835:76721836:+_ENSG00000138768_ENST00000264904|hu_mus|hu_hu_hu_mus_True|1_68 (ssRNA)
RNA: GGGAGUUCUACAGUCCGACGAUCGUUUGGCUGGGGUUUCUGAGACGCUCUGGAAUAUAACUCAUGUUGCUAAUAAAAUCCUAGUUUCUCUAUGAAAUUCUCUUUGCCAAUCCUCUUCUCUAUUAGUUGCUUUAGUUCUCUUUCCAACAGAGGAUUGAGCAUCA
B21: chr18:21054979:21054980:+_ENSG00000101782_ENST00000339486|hu_mus|motif|central (ssRNA)
RNA: GGGAGUUCUACAGUCCGACGAUCCUUUACUUCUUUUAAUUUAGGGGCUGGAACUUGAUCAUGGCCAAUGAAAGACAUAACGGAAAUGUGCUUCUUAAGCAGUACAACUGUUGGACAAGGAAUUCCAGCCUUCUGCAUUCUUGUCAACAGAGGAUUGAGCAUCA
B22: chr16:94664741:94664742:+_ENSMUSG00000040785_ENSMUST00000117648|mus_hu|mus_mus_mus_hu_False|58_98 (ssRNA)
RNA: GGGAGUUCUACAGUCCGACGAUCUGGUACUGAUCUUUGCAUUGGAUAUUCAGGAGAAAGGCUGGCCAAGGGUGUAUAAAUGCUAGUGUACUGGGGCAAACCUGGUAACACGUUUAUGUAUGCUGGCGGUGUCUGGGUGAUAUCCAACAGAGGAUUGAGCAUCA

biological target: T1, UNK ZnF1-3; assay: nsRBNS (natural sequence RNA bind-n-seq); RBNS binding buffer (assumed for nsRBNS): 25 mM Tris pH 7.5, 150 mM KCl, 3 mM MgCl2, 0.01% Triton X-100, 500 ug/ml BSA, 20 U/ml SUPERase-In, 4 C; UNK is unkempt and MSI1 is Musashi-1; names of the RNAs are library labels; protein concentration not given here; high values mean tight binding

Row | Binder | binding signal
1 | B1 | 0.887 enrichment R
2 | B2 | 1.25 enrichment R
3 | B3 | 1.16 enrichment R
4 | B4 | 0.947 enrichment R
5 | B5 | 1.06 enrichment R
6 | B6 | 1.98 enrichment R
7 | B7 | 0.721 enrichment R
8 | B8 | 1.1 enrichment R
9 | B9 | 1.61 enrichment R
10 | B10 | 0.684 enrichment R
11 | B11 | 1.91 enrichment R
12 | B12 | 0.649 enrichment R
13 | B13 | 0.93 enrichment R
14 | B14 | 1.32 enrichment R
15 | B15 | 0.915 enrichment R
16 | B16 | 0.288 enrichment R
17 | B17 | 1.86 enrichment R
18 | B18 | 1.08 enrichment R
19 | B19 | 2 enrichment R
20 | B20 | 0.542 enrichment R
21 | B21 | 0.811 enrichment R
22 | B22 | 0.911 enrichment R
